{"source": "PubChem BioAssay AID686979", "about": "(National Center for Advancing Translational Sciences (NCATS), 2013)", "note": "The whole screen tested about 420,000 compounds, of which about 50,000 (12%) were called active. Inconclusive results, whose numbers are uncertain, are shown with a selection of clear calls. Calls come from the whole dose curve; as a rule, active = well fitted inhibition curve with a large enough effect; inconclusive = small, poorly fitted or top-dose-only effect; inactive = flat fitted curve, though single readings scatter. Potencies of inconclusive entries are left out as doubtful fits."}
{"test": "qHTS for Inhibitors of human tyrosyl-DNA phosphodiesterase 1 (TDP1): qHTS in cells in presence of CPT; note: nearly all actives have a fitted effect of over 55% in size; note: potency is the fitted concentration of half-maximal effect; tags give direction and shape of the fitted curve; for activity change, negative = growth inhibition: % is set by controls: 0 for no effect and ±100 for the full control effect", "conditions": "chicken DT40 Tdp1-/-;hTDP1 cells + 20 nM CPT, ATP luminescence, 48 h; activity change, negative = growth inhibition: at 46.2 µM (top of the series)", "outline": "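Chicken DT40 Tdp1-/- cells complemented with human TDP1, 400 cells/well, exposed to compounds plus 20 nM camptothecin for at least 48 h at 37 C; viability read as ATP content by CellTiter-Glo luminescence.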"}
{"molecule": "CC(NC(=O)c1ccccc1NC(=O)CN1CCc2ccccc2C1)c1ccccc1", "note": "(stereo unspecified)", "activity change, negative = growth inhibition": "inactive: -17.2%"}
{"molecule": "Cn1c(=O)c2c(ncn2CCOc2cccc(Br)c2)n(C)c1=O", "Potency": "active: 8.2 µM"}
{"molecule": "O=C(OC1C2CCC1C1CN(CCc3ccccc3)CC12)c1ccccc1", "note": "(stereo unspecified)", "Potency": "inconclusive [inhibitor, single point]"}
{"molecule": "O=C(NCc1ccco1)c1nc2c(nnn2Cc2ccccc2Cl)c(=O)[nH]1", "Potency": "inconclusive [inhibitor, single point]"}
{"molecule": "CC(=O)c1ccc(N2CCN(S(=O)(=O)c3ccc4c(c3)CC(C)N4C(=O)C3CC3)CC2)cc1", "note": "(stereo unspecified)", "Potency": "active: 4.61 µM"}
{"molecule": "CCOC(=O)Nc1ccc2c(c1)N(C(=O)CCN(C)C)c1ccccc1S2", "activity change, negative = growth inhibition": "inactive: -10.8%"}
{"molecule": "O=C(CN1C(=O)NC(Cc2ccccc2)(Cc2ccccc2)C1=O)NCC1CCCCC1", "Potency": "inconclusive [inhibitor, single point]"}
{"molecule": "COc1ccc(NC(C)=O)cc1S(=O)(=O)N1CCc2ccccc21", "activity change, negative = growth inhibition": "inactive: 4.86%"}
{"molecule": "COc1ccc(-c2ccc3[nH]c4c(c3c2)CCN2C[C@@H]([C@H](C)OC(=O)Nc3cc(Cl)cc(Cl)c3)[C@@H](N(C)C(=O)Nc3cc(Cl)cc(Cl)c3)C[C@@H]42)cc1", "Potency": "inconclusive [inhibitor, single point]"}
{"molecule": "Cc1cc(Br)ccc1NC(=O)C1CCN(S(=O)(=O)c2cccc3nsnc23)CC1", "activity change, negative = growth inhibition": "inconclusive: -32.2% [inhibitor]"}
{"molecule": "CCOc1cc(NC(=O)c2ccccn2)c(OCC)cc1NC(=O)c1ccccc1", "Potency": "inconclusive [inhibitor, single point]"}
{"molecule": "CN1C(=O)C(Cl)(Cl)C(=O)c2ccccc21", "Potency": "active: 14.6 µM"}
{"molecule": "CCN(CC(=O)Nc1ccc(OC)cc1)C(=O)CN1C(=O)NC(C)(c2ccc3ccccc3c2)C1=O", "note": "(stereo unspecified)", "Potency": "inconclusive [inhibitor, single point]"}
{"molecule": "CC1(C)N([O-])C2=C(c3ccccc3C2=O)[N+](=O)C1(C)C", "Potency": "inconclusive [inhibitor, single point]"}
{"molecule": "CCc1ccc(O)c(-c2cc(C(=O)Nc3cccnc3)[nH]n2)c1", "Potency": "inconclusive [inhibitor, single point]"}
{"molecule": "COCCCNC(=O)C(=O)Nc1c2c(nn1-c1cccc(Cl)c1)CSC2", "Potency": "inconclusive [inhibitor, partial curve]"}
{"molecule": "CCOc1ccccc1NC(=O)C(Sc1nnc2ccccn12)c1ccccc1", "note": "(stereo unspecified)", "Potency": "inconclusive [inhibitor, single point]"}
{"molecule": "O=C(c1ccccc1)c1ccccc1C(=O)N1CCN(C(=O)c2ccccc2)CC1", "Potency": "inconclusive [inhibitor, single point]"}
{"molecule": "CCCc1cc(C(=O)NNC(=S)NCc2ccccc2)cs1", "Potency": "inconclusive [inhibitor, partial curve]"}
{"molecule": "O=C(/C=C/c1ccccc1F)c1cccc([N+](=O)[O-])c1", "Potency": "inconclusive [inhibitor, single point]"}
{"molecule": "COc1cc(NC(=O)COc2ccc(Cl)cc2)ccc1-c1cc2ccccc2oc1=O", "Potency": "active: 4.11 µM"}
{"molecule": "Cc1ccccc1CSCc1ccc(C(=O)NCCCN2CCOCC2)o1", "activity change, negative = growth inhibition": "inactive: -1.82%"}
{"molecule": "CCC(C)(C)n1nnnc1C(c1cc2cc(C)ccc2[nH]c1=O)N1CCCc2ccccc21", "note": "(stereo unspecified)", "Potency": "inconclusive [inhibitor, single point]"}
{"molecule": "COC(=O)c1c(-c2cccs2)csc1NC(=O)COc1c(C)ccc(C)c1C", "Potency": "inconclusive [inhibitor, single point]"}
{"molecule": "O=[N+]([O-])c1ccc(-c2ccc(/C=N/c3c(-c4ccco4)nc4ccccn34)o2)cc1", "Potency": "active: 20.6 µM"}
{"molecule": "CC(C1CC1)N(Cc1ccccc1)C(=O)NC(=O)c1ccc(F)cc1", "note": "(stereo unspecified)", "Potency": "inconclusive [inhibitor, single point]"}
{"molecule": "CNC(=O)Cn1cc(S(=O)(=O)Cc2ccccc2F)c2ccccc21", "activity change, negative = growth inhibition": "inactive: -4.58%"}
{"molecule": "O=C(/C=C/c1cc[n+](CC(=O)c2ccc3cccc4c3c2CC4)cc1)c1ccc2cccc3c2c1CC3", "Potency": "inconclusive [inhibitor, single point]"}
{"molecule": "O=C(C1CCC1)N1CCc2cc(S(=O)(=O)Nc3ccc4c(c3)OCCO4)ccc21", "Potency": "active: 11.6 µM"}
{"molecule": "NC(=O)COc1ccccc1", "activity change, negative = growth inhibition": "inactive: 1.76%"}
{"molecule": "COc1ccc(CCC(=O)OCC(=O)NCc2ccccc2)cc1", "activity change, negative = growth inhibition": "inactive: -11.1%"}
{"molecule": "CCOC(=O)C(C)(C)N(Cc1ccc(C)cc1)S(=O)(=O)c1ccc(Cl)c([N+](=O)[O-])c1", "Potency": "active: 14.6 µM"}
{"molecule": "COc1cccc(/C=N/n2c(=S)n(C)c3cc(C)c(C)cc32)c1OC", "Potency": "inconclusive [inhibitor, single point]"}
{"molecule": "Cc1ccc(N(C(=O)C(F)(F)F)C(C(=O)NC2CCCCC2)c2cccs2)cc1C", "note": "(stereo unspecified)", "activity change, negative = growth inhibition": "inactive: -4.05%"}
{"molecule": "Oc1ccc(N=Nc2c(O)ccc3ccccc23)cc1", "Potency": "active: 18.4 µM"}
{"molecule": "CCC(C)N(C)Cc1cccc(C2(O)CCN(S(=O)(=O)c3ccc(F)c(C)c3)CC2)c1", "note": "(stereo unspecified)", "Potency": "active: 18.4 µM"}
{"molecule": "CC(C(=O)Nc1ccccc1)C(=O)Nc1ccccc1", "activity change, negative = growth inhibition": "inactive: -1.27%"}
{"molecule": "CCOC(=O)c1c(NC(=O)Cn2nc(C(F)(F)F)cc2C)sc2c1CCC2", "Potency": "inconclusive [inhibitor, single point]"}
{"molecule": "COc1cc(OC)c2c(c1)C(=O)OC2c1cc(OC)c(OC)cc1C", "note": "(stereo unspecified)", "Potency": "inconclusive [inhibitor, single point]"}
{"molecule": "CN(C(=O)CCl)C1CCCc2ccccc21", "note": "(stereo unspecified)", "Potency": "active: 2.59 µM"}
{"molecule": "COc1ccc(-c2oc3ncn4nc(COc5c(C)cccc5C)nc4c3c2-c2ccc(OC)cc2)cc1", "Potency": "inconclusive [inhibitor, partial curve]"}
{"molecule": "O=c1cnnc(SCc2ccc([N+](=O)[O-])cc2)[nH]1", "activity change, negative = growth inhibition": "inactive: -1.1%"}
{"molecule": "Cc1nn(C(=O)c2ccccc2F)c(C)c1S(=O)(=O)N1CCCCCC1", "activity change, negative = growth inhibition": "inactive: -0.369%"}
{"molecule": "C[C@@H]1CN([C@H](C)CO)C(=O)CCCn2nncc2CO[C@H]1CN(C)Cc1ccc(O)cc1", "activity change, negative = growth inhibition": "inactive: 5.71%"}
{"molecule": "CON(C)C(=O)CC(CNC(=O)OC(C)(C)C)c1ccc(Cl)cc1", "note": "(stereo unspecified)", "Potency": "inconclusive [inhibitor, single point]"}
{"molecule": "COc1ccccc1N(C(C)=O)c1nc(C)cc(C)c1C#N", "activity change, negative = growth inhibition": "inactive: 7.58%"}
